The list shows a part of the results.
system: T1, C. trachomatis L2/434/Bu expressing GFP (CTL2-GFP); design: species or system HeLa; C. trachomatis total inclusion area by high-content imaging, normalised to DMSO; conditions: total inclusion area; 28.5 h, 10 µM; inhibitor
T1 construct: L2/434/Bu GFP intracellular growth in HeLa cells
In short: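 Imaging read-out: GFP inclusions and Hoechst nuclei captured by high-content imaging after fixation. Inclusion area/number = chlamydial growth; nuclei count = host cell viability. MIC calculated per earlier method.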

| Compound | % of control remaining |
| --- | --- |
| O=C(Nc1ncc(Cc2ccc(F)cc2)s1)C1CCCCC1 [CBK058611] | 98.6863 |
| CC(=O)C(C)n1c(=O)c2c(nc3oc(C(C)(C)C)cn32)n(C)c1=O (stereo not drawn) [CBK306027] | 30.3188 |
| CCOC(=O)CN1CCN(c2nccnc2OC2CCCCC2)CC1 [CBK082837T] | 70.8922 |
| COc1ccc(NC(=O)N[C@@H]2CC[C@@]3(c4ccc(OC)c(OC)c4)CCN(C)[C@H]3C2)c(C)c1 [CBK036460T] | 67.0363 |
| Cc1cc(CN(C)Cc2c(-c3ccccc3)nn(C)c2C)n[nH]1 [CBK281707] | 94.8443 |
| Cn1nccc1C(=O)N1CCC2(C/C=C/COc3ccccc3C(=O)NC[C@@H](Cc3ccccc3)NC2=O)CC1 [CBK292183] | 89.7585 |
| COCCCNC(=S)N/N=C/c1ccco1 [CBK006272] | 60.6926 |
| CN(C)S(=O)(=O)c1ccc(NC(=O)CCC(=O)O)cc1 [CBK267156] | 110.524 |
| Cc1nn(C)cc1CN(CCCn1ccnc1)Cc1cccc(F)c1 [CBK283098] | 121.208 |
| CCOc1nc(=O)c(C)cn1C1CC(O)C(CO)O1 (stereo not drawn) [CBK201334] | 91.6245 |
| Cc1cn([C@H]2C[C@@H](O)[C@@H](CO)O2)c(N)nc1=O [CBK201327] | 130.275 |
| COC(=O)c1ccccc1NC(=O)CSCc1ccc(Cl)cc1Cl [CBK131712] | 59.159 |
| COc1cc(OC)c(NC(=O)C(C)Oc2ccc(Br)cc2)cc1Cl (stereo not drawn) [CBK266791] | 101.377 |
| O=C1CCN(Cc2nc(-c3cccc(C(F)(F)F)c3)no2)CCN1 [CBK306368] | 77.8587 |
| O=S(=O)(c1ccc(F)c(Cl)c1)N1CCCN(Cc2ccccc2)CC1 [CBK045211] | 83.9184 |
| O=C(O)/C=C/C(=O)Nc1cccc(C(=O)O)c1 [CBK260988] | 102.578 |
| Cc1ccc(S(=O)(=O)N(CC(=O)NCC2CCCO2)c2cccc(C)c2C)cc1 (stereo not drawn) [CBK265339] | 91.15 |
| Brc1ccc2c(c1)[C@H]1C=CC[C@H]1[C@@H](c1ccccc1)N2 [CBK303238] | 73.265 |
| COc1ccc(-c2coc3c(C)c4oc(=O)c(CC(=O)O)c(C)c4cc23)cc1 [CBK269403] | 67.5962 |
| CCOC(=O)CCNC(=O)c1ccccc1-n1cccc1 [CBK149611] | 75.2338 |
| COc1cccc(CNC(=O)C2CCN(c3nc4c(-c5cccc(C)c5)csc4c(=O)[nH]3)CC2)c1 [CBK215603] | 109.473 |

| Compound | % of control remaining |
| --- | --- |
| OCc1ccc(-c2nccnc2NCc2cccc(C(F)(F)F)c2)cc1 [CBK037076] | 84.615 |
| C[C@H](c1ccccc1)n1c(=O)[nH]c2ncc(-c3ccc(N(C)C)cc3)nc21 [CBK064367] | 124.998 |
| O=C(NC1CCN(CC2(c3ccccc3)CC2)CC1)c1ccco1 [CBK285321] | 96.456 |
| COC(=O)c1sccc1S(=O)(=O)N1CCN(c2ncnc3scc(C)c23)CC1 [CBK023600] | 104.439 |
| O=C(Cc1csc(-c2ccc(Cl)cc2)n1)N1CCN(c2ccccn2)CC1 [CBK107310] | 80.6528 |
| COc1cc(C2CC(=O)Nc3nc(N)[nH]c(=O)c32)ccc1OCc1ccc(F)cc1 (stereo not drawn) [CBK293980] | 39.6301 |
| COc1ccc(N(CC(=O)N2CCN(C)CC2)S(=O)(=O)c2ccc(C)c([N+](=O)[O-])c2)cc1 [CBK264051] | 92.528 |
| CC(=O)Nc1cccc(-n2cnnc2SCC2CCOCC2)c1 [CBK306354] | 40.8591 |
| Cc1c(C(C)NCC(C)(C)N(C)C)cnn1-c1ccc(C#N)cc1 (stereo not drawn) [CBK306447] | 54.2377 |
| COC(=O)[C@@H]1Cc2ncn(C(C)C)c2CN1C(=O)C1CCCCC1 [CBK288989] | 117.381 |
| N=C(N)SCc1ccc(CSC(=N)N)cc1 [CBK278309C] | 106.475 |
| CCC1(C)Cc2sc3[nH]c(=O)c(SCC(N)=O)nc3c2CO1 (stereo not drawn) [CBK020581] | 43.0784 |
| Cc1c(C)n(Cc2ccco2)c2ncnc(NCCCC(=O)O)c12 [CBK307562] | 103.419 |
| OC(COCc1ccco1)CN1CCc2sccc2C1C1CC1 (stereo not drawn) [CBK305167] | 104.22 |
| CCN(Cc1ccncc1)C(=O)NCCc1ccc(OC)cc1 [CBK155149] | 107.543 |
| CN(C)c1nc2n(c(=O)n1)CCS2 [CBK019025] | 70.3238 |
| CN(Cc1ccccc1N1CCCC1)C(=O)Cc1cn2ccsc2n1 [CBK305897] | 57.0833 |
| CC(=O)c1c[nH]c(=O)[nH]c1=O [CBK012093] | 116.495 |
| CCOC(=O)COc1ccc(S(=O)(=O)N2CCN(Cc3ccc4c(c3)OCO4)CC2)cc1 [CBK074492] | 116.133 |
| Cc1nc(-c2cc3c(s2)CCN(CC(O)COCc2ccco2)C3)cs1 (stereo not drawn) [CBK304460] | 107.494 |
| Cc1ccc2nc(NC(=O)c3cc(C)n(C)n3)sc2c1 [CBK287668] | 97.9197 |

| Compound | % of control remaining |
| --- | --- |
| COc1ccc(-c2nnc(SCC(=O)Nc3cc(C)on3)n2C2CCCCC2)cc1 [CBK297510] | 99.086 |
| Cc1nn(CC(C)C)c(Cl)c1C(=O)Nc1nc2ccc(F)cc2s1 [CBK252188] | 99.7063 |
| CC(CCN1CCN(Cc2ccccc2)CC1)c1ccccc1 (stereo not drawn) [CBK261902] | 92.4323 |
| O=C(NCC1COc2ccccc2O1)c1ccc(-c2ccc(OC(F)(F)F)cc2)nc1 (stereo not drawn) [CBK156214] | 96.1621 |
| COc1cccc(-c2ccc(C(=O)NCc3ccccc3SC)c(N3CCN(C(=O)c4ccco4)CC3)n2)c1 [CBK106025] | 98.1863 |
| COc1cc(Br)c(OC)c(C(=O)N(C)Cc2cnn(C)c2)c1 [CBK244011] | 40.6625 |
| O=C(c1cncnc1)N1CCc2ccccc21 [CBK200272] | 72.2584 |
| O=C1CC(c2ccccc2F)C2=C(COC2=O)N1 (stereo not drawn) [CBK086692] | 88.289 |
| Cc1cc(S(=O)(=O)NCc2ccccc2-n2ccnc2)ccc1F [CBK281477] | 109.054 |
| CSCC[C@H](NC(=O)c1cccc2c1-c1ccccc1C2=O)C(=O)O [CBK286781] | 48.0589 |
| Fc1ccc2[nH]c3c(c2c1)CCNC31CCN(CCOc2ccccc2)C1 (stereo not drawn) [CBK085404T] | 74.8664 |
| CS(=O)(=O)N(Cc1ccc(Cl)cc1)c1ccc(C(=O)Nc2ccccc2C(=O)O)cc1 [CBK264093] | 102.361 |
| COc1ccc(-c2nccnc2NCCCN(C)C)cc1 [CBK037671] | 82.5583 |
| Fc1cccc(Nc2nc(C3CCNCC3)c3ccccn23)c1 [CBK281522] | 99.6268 |
| O=C(NNc1nc(-c2ccccc2)cc(-c2ccccc2)n1)Nc1ccccc1 [CBK262223] | 76.1072 |
| Cn1c(=O)c2c(ncn2CC(=O)Nc2cccc(Br)c2)n(C)c1=O [CBK133287] | 87.2825 |
| Cc1csc(C(Cc2ccsc2)NC(=O)C2CCOCC2)n1 (stereo not drawn) [CBK285047] | 94.384 |
| CC(C)(C)c1cc(N)c(C(N)=O)s1 [CBK016752] | 54.0658 |
| COc1cc2c(cc1OC)C1(CCN(CCc3c[nH]c4ccccc34)CC1)NC(=O)C2 [CBK039992] | 109.249 |
| Clc1cncc(NCCc2c[nH]c3ccccc23)n1 [CBK093514] | 35.6202 |
| COc1ccc(CN2C(=O)CS(=O)(=O)CC2=O)cc1OC [CBK011127] | 95.4334 |

| Compound | % of control remaining |
| --- | --- |
| Fc1ccc(Br)cc1SCCc1ccccn1 [CBK262330G] | 79.5366 |
| O=C(O)C[C@@H]1CCN(C(=O)c2ccc3c(c2)OCO3)C[C@@H]1CC1=NCCc2ccccc21 [CBK289160] | 92.3551 |
| Cc1nc(NC(=O)c2ccoc2)sc1C [CBK296729] | 106.453 |
| O=C(O)c1ccc(CNCCc2c[nH]c3ccccc23)cc1 [CBK287265] | 94.236 |
| O=C1Nc2ccc(/C=C/c3ccccc3)cc2C(=O)N2CC[C@H](NC(=O)N3CCOCC3)[C@@H]12 [CBK289344] | 82.6744 |
| CCCCC1CCC(c2noc(-c3ccc(F)cc3)n2)CC1 (stereo not drawn) [CBK027363] | 41.4387 |
| COc1ccc([N+](=O)[O-])c(N2CCOC3(CCN(C(=O)OCc4ccccc4)CC3)C2)n1 [CBK161117T] | 92.2978 |
| CC(C)NC(=O)c1sc2ccccc2c1C1CN(Cc2ccc3ncccc3c2)CCO1 (stereo not drawn) [CBK285930] | 98.2199 |
| CC(C)(O)c1cc(CC2(NCc3ccc(Cl)cc3)COC2)no1 [CBK289254] | 117.794 |
| O=C(O)CC1C(=O)NCCN1Cc1cccc(C(F)(F)F)c1 (stereo not drawn) [CBK269958] | 102.287 |
| CC(=O)Nc1ccc(S(=O)(=O)N2CCN(CCO)CC2)cc1 [CBK262196] | 108.942 |
| Cc1noc(C)c1CC(=O)Nc1cccc(CN2CCCCCC2)c1 [CBK281407] | 58.2929 |
| Cc1cc(C)n2c(SCC(C)(C)NS(=O)(=O)c3ccccc3)nnc2n1 [CBK268369] | 101.194 |
| CCN(C(C)COC)S(=O)(=O)c1cccc(Cl)c1Cl (stereo not drawn) [CBK305146] | 76.5011 |
| COc1cccc(NC(=O)c2ccc(NC(=O)CCCC(=O)O)cc2)c1 [CBK287137] | 88.9134 |
| COc1ccccc1CCNC(=O)c1cnccn1 [CBK268147] | 65.4885 |
| O=C(O)CCNc1ccc(Br)cc1C(=O)O [CBK087259] | 101.059 |
| Cc1cc(-c2ccc(=O)n(CCNC(=O)C3CCCCC3)n2)c(C)o1 [CBK284522] | 89.142 |

Source: PMC12040169 (PLOS Biology, 2025)
